This is one part of the list. The list includes weakly bound sequences.

In the test the target is MaxL homodimer (UniProt P61244). Kind of test: universal protein-binding microarray (PBM). Particulars: PBS-based mixture, 10 nM His-tagged protein dimer, 2% milk, 200 ng/uL BSA, 50 ng/uL salmon testes DNA, 0.02% TX-100; detection with Alexa 488 anti-His …; high values mean tight binding; most listed sequences are background and not binding sites; double strand, one strand shown.
Chain of UniProt P61244 (P61244 whole entry): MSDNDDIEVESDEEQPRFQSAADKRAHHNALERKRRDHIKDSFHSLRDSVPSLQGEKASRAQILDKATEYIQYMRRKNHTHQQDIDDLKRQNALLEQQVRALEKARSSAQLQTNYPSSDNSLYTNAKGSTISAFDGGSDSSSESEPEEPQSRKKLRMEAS
ACTATCCC: the binding signal (normalized occupancy) is 0.078. For AAGCGTGC, the binding signal (normalized occupancy) came out at 0.104. For the sequence ATCGCGGC, the binding signal (normalized occupancy) was determined as 0.0711. Take AACGAAGT: the binding signal (normalized occupancy) was 0.0697.

Consider AAGGATCC, for which the binding signal (normalized occupancy) came to 0.0705.

In the case of CGAATAAC, the binding signal (normalized occupancy) was determined as 0.0806. For ATATGATC, the binding signal (normalized occupancy) was 0.0857.

TCCTAAAA: the binding signal (normalized occupancy) is 0.0736. Regarding GCATATGA, the binding signal (normalized occupancy) was 0.0934.

As for ACCATTCC, the binding signal (normalized occupancy) turned out to be 0.0757.

On to GCTCGTGA, for which the binding signal (normalized occupancy) came to 0.0843. As to ACCGGCAA, the binding signal (normalized occupancy) is 0.0701. Consider CACCGATA, for which the binding signal (normalized occupancy) came to 0.0716.

As for ACGCGTCC, the binding signal (normalized occupancy) turned out to be 0.0815. Then AGGATTTG, with 0.0735; and CTTCCCGC, with 0.0751. The result for AACTGCAA reads 0.0708; that for CCAGCGTA, 0.0722; that for CTGAGGTA, 0.0725. Regarding ATTTCTGG, the binding signal (normalized occupancy) was 0.0774. Consider AAGAAGCC, for which the binding signal (normalized occupancy) is 0.0665.

On to AGCCCTGG, for which the binding signal (normalized occupancy) is 0.07. Then AATGCTAC, with 0.0772. Then CTATGGGC, with 0.0769. The result for ACCCAACC reads 0.0807. Regarding ATTTCGAC, the binding signal (normalized occupancy) turned out to be 0.0789.

On to ACTCTCAT, for which the binding signal (normalized occupancy) was 0.0816. Then CGTCCGTC, with 0.0701; and ATAACGAC, with 0.0827. Take CTTACCAA: the binding signal (normalized occupancy) came out at 0.0772. For the sequence ACCCGGAG, the binding signal (normalized occupancy) was determined as 0.0736. For TCTAGACA, the binding signal (normalized occupancy) was found to be 0.0768.

For CGAGGGGA, the binding signal (normalized occupancy) came to 0.0726. The result for CCCATGAG reads 0.0921; that for AACTTTAA, 0.0679; that for GTTACAAC, 0.0748.

As to CAAGACTC, the binding signal (normalized occupancy) is 0.0699. As for AACGGCAG, the binding signal (normalized occupancy) turned out to be 0.067. Consider CACGGCGA, for which the binding signal (normalized occupancy) stood at 0.0765. Then ATAGAGGA, with 0.0732. As for ATCTGCGA, the binding signal (normalized occupancy) is 0.078.

In the case of CCTTCCTA, the binding signal (normalized occupancy) worked out at 0.0705. Take TCGCAGCA: the binding signal (normalized occupancy) is 0.0711. Then CAGCGGGC, with 0.0682. On to CCGAGTGC, for which the binding signal (normalized occupancy) stood at 0.0748.

For the sequence GACGAAGA, the binding signal (normalized occupancy) was 0.0677. With CCATGGCG, the binding signal (normalized occupancy) worked out at 0.0768. For GATAGTCC, the binding signal (normalized occupancy) was determined as 0.082. The result for ACCCTAAT reads 0.079.

For GTTCACAA, the binding signal (normalized occupancy) came to 0.0724. The result for GCTGGTAC reads 0.0712.

On to AAAAACCG, for which the binding signal (normalized occupancy) turned out to be 0.0752. For AGAGAAAG, the binding signal (normalized occupancy) came out at 0.0712. The result for ATACCTAA reads 0.078. Then AAGGCTTC, with 0.0717.

As for GCGAGCAC, the binding signal (normalized occupancy) worked out at 0.0768. The result for ACAGCGGG reads 0.0697; that for GGTAACTA, 0.077; that for CAAGGATG, 0.0729.

CTTATCAA: the binding signal (normalized occupancy) was 0.0755. Then CCGTACTC, with 0.0675; and GATATCCC, with 0.0803; and AGCTCCGC, with 0.0681. The result for AAACGTCT reads 0.0704; that for CGAGTTGA, 0.0727; that for CTATTGTC, 0.079. In the case of AGCGCTAC, the binding signal (normalized occupancy) worked out at 0.0701. ACCGATCT: the binding signal (normalized occupancy) was determined as 0.0743. The result for ACCGATAG reads 0.0767; that for ATTTTAAC, 0.0737; that for GGTCAAAC, 0.0731.

ACTATTGA: the binding signal (normalized occupancy) was found to be 0.0748. As to AAATACCC, the binding signal (normalized occupancy) stood at 0.0789. As for AATGTTTA, the binding signal (normalized occupancy) was 0.0748. GGCGCCAA: the binding signal (normalized occupancy) stood at 0.066.

For CGTGCGGA, the binding signal (normalized occupancy) was found to be 0.0851. With GCATGGAA, the binding signal (normalized occupancy) is 0.0932. On to AGAAGCTC, for which the binding signal (normalized occupancy) was determined as 0.0732.

For the sequence ACGGACTA, the binding signal (normalized occupancy) was found to be 0.0757. For ACCTAAGT, the binding signal (normalized occupancy) is 0.0745. For CGCTTCGA, the binding signal (normalized occupancy) turned out to be 0.0673. The result for GTTCTATA reads 0.0795; that for AATACCGT, 0.0735. Then ACCCTCAC, with 0.0801; and TATCATCA, with 0.0814; and CAGTACTG, with 0.074. The result for AATTGCAT reads 0.0746; that for CCCTGCGA, 0.0717; that for CTAATAAC, 0.0826. For GATGGGCC, the binding signal (normalized occupancy) was 0.071. For the sequence GGACGGAC, the binding signal (normalized occupancy) came out at 0.0693. Then AAGATATT, with 0.0751; and ACAAGTTA, with 0.0748; and AAACCTTC, with 0.0692.

Regarding CTTATTAA, the binding signal (normalized occupancy) was 0.0743. In the case of AGGAGAAC, the binding signal (normalized occupancy) is 0.0777. Regarding AAACTTTA, the binding signal (normalized occupancy) came out at 0.0719. Then ATGTCCTA, with 0.0783; and CCCAGCAA, with 0.0747; and AAGGGCAA, with 0.0728.

As to AAAAGGGA, the binding signal (normalized occupancy) turned out to be 0.0725.

For the sequence GGTAGTAC, the binding signal (normalized occupancy) is 0.0788. The result for GGACGACC reads 0.0682; that for CCGCTGTA, 0.0735; that for AATTGGAT, 0.0727.

On to CACAGCTG, for which the binding signal (normalized occupancy) was determined as 0.0757.

Regarding ATGGTCAA, the binding signal (normalized occupancy) amounted to 0.0825. In the case of ACGGCTCT, the binding signal (normalized occupancy) was determined as 0.069. For the sequence GGCGTAGA, the binding signal (normalized occupancy) worked out at 0.0753. With ACGAATCA, the binding signal (normalized occupancy) worked out at 0.0778. ATGCTGCA: the binding signal (normalized occupancy) turned out to be 0.0899. Consider ACTCATGA, for which the binding signal (normalized occupancy) was found to be 0.0903. Turning to CAAGGTAA, the binding signal (normalized occupancy) came to 0.0729. The result for CTCTCCGA reads 0.0657; that for AGCCCGGC, 0.0634; that for CTTCCGTC, 0.0725. The result for GCGCTCCC reads 0.0674; that for CCCAAATA, 0.0756. Turning to CACTGCAC, the binding signal (normalized occupancy) worked out at 0.0816. Take ACATAAAA: the binding signal (normalized occupancy) is 0.0779. Take AGTAGTCA: the binding signal (normalized occupancy) came out at 0.0744.

Consider GCTGGCAC, for which the binding signal (normalized occupancy) was found to be 0.0743. With AAAGGTCT, the binding signal (normalized occupancy) turned out to be 0.0727. With CAGTCGGG, the binding signal (normalized occupancy) came out at 0.0726. The result for AAGTTCAC reads 0.0713; that for ACGGCGAG, 0.075. On to GTAAGTGA, for which the binding signal (normalized occupancy) is 0.0729. For GTTCCCAA, the binding signal (normalized occupancy) is 0.0687.

For CAAGGGAA, the binding signal (normalized occupancy) was 0.0781. The result for GCTAGGCA reads 0.072; that for ATCAGCCG, 0.0692. Then CATTGGCG, with 0.0762; and CCGCGGAA, with 0.0678; and GACCTATA, with 0.0756. Regarding GCAAAGAC, the binding signal (normalized occupancy) came to 0.0719.

Take GGTGCGAA: the binding signal (normalized occupancy) was determined as 0.0742. In the case of ACGAGTTC, the binding signal (normalized occupancy) is 0.0822. Then GCGAAGAC, with 0.0682; and CGTGGGGC, with 0.0907; and CAAGCTTC, with 0.0672. For the sequence ACGGGTGA, the binding signal (normalized occupancy) stood at 0.0801. Regarding CAATAAGA, the binding signal (normalized occupancy) turned out to be 0.0771. Then CATATTTC, with 0.0835; and CTAACAAC, with 0.0738; and AGCTCACG, with 0.0767. Turning to ATCCATCC, the binding signal (normalized occupancy) worked out at 0.0859. The result for AACTCCTC reads 0.077. For the sequence TAACCCTA, the binding signal (normalized occupancy) was found to be 0.0802. Consider GCTCAAAC, for which the binding signal (normalized occupancy) was 0.0655. Consider CCGTCGAG, for which the binding signal (normalized occupancy) turned out to be 0.0678.

As to CTGATAAC, the binding signal (normalized occupancy) is 0.0739. In the case of CACCTGTA, the binding signal (normalized occupancy) was found to be 0.0889.

As to GACGACGC, the binding signal (normalized occupancy) came to 0.073. Then ACCTCACA, with 0.0843; and GAGGCGAC, with 0.0701; and GATCCGAC, with 0.0782. Then AAATATTA, with 0.0872; and CCTACAGG, with 0.0722; and CTCCTAAC, with 0.0792. As for AGTATTTC, the binding signal (normalized occupancy) turned out to be 0.0732. The result for ACTAACTA reads 0.0735. The result for TCGCCTCA reads 0.0678; that for GAACGGAC, 0.0657; that for AACTTTCC, 0.0742. On to ACGTCGAA, for which the binding signal (normalized occupancy) turned out to be 0.0724. The result for ATGGCCTC reads 0.0726. The result for CTCTATAC reads 0.0791. The result for AGTGACAC reads 0.0824. In the case of AAATTTGA, the binding signal (normalized occupancy) is 0.0723. The result for AACATTAC reads 0.0803; that for ATCCTTTC, 0.0778; that for ATTGCTAG, 0.0703.

For the origin of these results see publication PMC4242493.
